Measurements reported in paper PMC12489471, “A multi-dentate, cooperative interaction between endo- and exo-ribonucleases within the bacterial RNA degradosome” (Nucleic Acids Research, 2025).
No constants are given. Whether binding was seen depends on the method and setting. Some results given as binding are weak or reduced against the parent protein; the word gives no strength. For some assays here: Where a sequence is shown, tags or fusion partners need not be part of it. One block for each substance: values may come before it.

Chains of the proteins cited; added tags and fusions are not shown. Residues count along the entry.
UniProt Q9HZM8, residues 883-1057: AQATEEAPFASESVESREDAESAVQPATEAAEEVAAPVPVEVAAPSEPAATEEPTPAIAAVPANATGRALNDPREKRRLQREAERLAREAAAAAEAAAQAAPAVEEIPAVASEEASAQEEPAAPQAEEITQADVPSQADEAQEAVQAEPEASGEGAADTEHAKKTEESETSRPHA
RNase E 960–1061 (P21513, residues 960-1061): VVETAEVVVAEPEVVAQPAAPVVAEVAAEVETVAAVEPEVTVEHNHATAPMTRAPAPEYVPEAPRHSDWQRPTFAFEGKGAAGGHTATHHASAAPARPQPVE
RNase E 960–1039 (P21513, residues 960-1039): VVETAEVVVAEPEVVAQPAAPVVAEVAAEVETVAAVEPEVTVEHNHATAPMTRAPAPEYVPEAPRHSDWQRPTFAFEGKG
RNase E 1000–1061 (P21513, residues 1000-1061): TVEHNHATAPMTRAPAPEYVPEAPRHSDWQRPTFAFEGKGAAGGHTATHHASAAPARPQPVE

What was measured:
[1] = target: T1, P. aeruginosa PNPase core (Pseudomonas aeruginosa (strain PAO1)) (UniProt Q9HV59); test: cryo-EM structure; P. aeruginosa PNPase core assembled with MBP-tagged RNase E C-terminal end; both purified
T1 sequence: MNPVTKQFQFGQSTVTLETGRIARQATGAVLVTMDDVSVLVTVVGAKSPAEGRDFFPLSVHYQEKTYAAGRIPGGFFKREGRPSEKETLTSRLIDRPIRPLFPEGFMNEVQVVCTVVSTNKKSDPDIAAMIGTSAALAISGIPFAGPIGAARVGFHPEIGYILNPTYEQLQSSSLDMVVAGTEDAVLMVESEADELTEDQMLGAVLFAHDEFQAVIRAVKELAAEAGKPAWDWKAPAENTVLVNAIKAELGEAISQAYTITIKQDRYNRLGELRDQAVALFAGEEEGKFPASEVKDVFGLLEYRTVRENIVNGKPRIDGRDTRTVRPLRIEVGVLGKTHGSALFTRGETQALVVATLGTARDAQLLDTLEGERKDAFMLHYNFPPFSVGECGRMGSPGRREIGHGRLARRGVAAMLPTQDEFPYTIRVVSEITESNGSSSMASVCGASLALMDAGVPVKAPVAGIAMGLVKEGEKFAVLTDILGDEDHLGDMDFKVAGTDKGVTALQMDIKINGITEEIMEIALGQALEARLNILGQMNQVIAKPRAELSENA

[2] = target: T2, PNPase carrying a C-terminal Hisx6 tag (E. coli polynucleotide phosphorylase) (E. coli) (UniProt P05055); test: condition: 9000 nM (highest concentration, told in the methods for RNase E 960–1038); SPR; PNPase with C-terminal His6 tag immobilised on Series S Sensor Chip NTA (5 RU); Biacore T200, 25°C; 20 mM HEPES pH 7.2, 150 mM NaCl, 5 mM MgCl2, 0.5 mM TCEP, 0.05% Tween 20; six peptide concentrations up to 9000 nM (up to 5000 nM for RNase E 985–1061); contact 60 s, dissociation 120 s; both …
T2 sequence: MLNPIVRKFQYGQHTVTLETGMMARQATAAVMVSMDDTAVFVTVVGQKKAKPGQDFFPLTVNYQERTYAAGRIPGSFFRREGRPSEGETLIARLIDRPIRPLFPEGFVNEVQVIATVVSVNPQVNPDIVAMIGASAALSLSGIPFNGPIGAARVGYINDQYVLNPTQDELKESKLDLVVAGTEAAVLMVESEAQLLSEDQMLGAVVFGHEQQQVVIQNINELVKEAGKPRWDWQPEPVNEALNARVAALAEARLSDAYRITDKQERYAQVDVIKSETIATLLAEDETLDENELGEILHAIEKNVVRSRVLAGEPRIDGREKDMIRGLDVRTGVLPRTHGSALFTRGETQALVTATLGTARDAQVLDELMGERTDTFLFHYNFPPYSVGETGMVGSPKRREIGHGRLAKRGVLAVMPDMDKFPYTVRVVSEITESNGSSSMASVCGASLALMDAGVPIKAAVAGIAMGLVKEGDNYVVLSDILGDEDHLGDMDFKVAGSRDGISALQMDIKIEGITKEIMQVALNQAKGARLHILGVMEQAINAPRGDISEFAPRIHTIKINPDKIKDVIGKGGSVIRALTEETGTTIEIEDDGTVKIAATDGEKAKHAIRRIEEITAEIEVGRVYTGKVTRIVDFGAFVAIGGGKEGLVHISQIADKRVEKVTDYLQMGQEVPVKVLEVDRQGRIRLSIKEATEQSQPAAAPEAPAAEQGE

[3] = target: T3, PNPase (E. coli polynucleotide phosphorylase, full-length) (E. coli) (UniProt P05055); test: cryo-EM structure; preliminary map of full-length PNPase co-expressed and co-purified with RNase E 960–1061
T3 sequence: T2 sequence

[4] = target: T4, E. coli PNPase core (E. coli, UniProt P05055 1-552); test: cryo-EM structure; PNPase core with RNase E peptide 960–1061; resolution of the peptide insufficient to align the sequence
T4 construct: polynucleotide phosphorylase (PNPase) core lacking the KH and S1 domains, E. coli, aa 1–552 by the methods (1–550 in the results and a legend); also called PNPase core (1–550); PNPase core (aa 1–552); source: E. coli Evo21(DE3), purified (Ni-NTA, intein cleavage, HIC, Q, Superdex 200); not shown: Mycobacterium xenopi GyrA intein, C-terminal, cleaved; His8, C-terminal, cleaved
T4 sequence (looked up): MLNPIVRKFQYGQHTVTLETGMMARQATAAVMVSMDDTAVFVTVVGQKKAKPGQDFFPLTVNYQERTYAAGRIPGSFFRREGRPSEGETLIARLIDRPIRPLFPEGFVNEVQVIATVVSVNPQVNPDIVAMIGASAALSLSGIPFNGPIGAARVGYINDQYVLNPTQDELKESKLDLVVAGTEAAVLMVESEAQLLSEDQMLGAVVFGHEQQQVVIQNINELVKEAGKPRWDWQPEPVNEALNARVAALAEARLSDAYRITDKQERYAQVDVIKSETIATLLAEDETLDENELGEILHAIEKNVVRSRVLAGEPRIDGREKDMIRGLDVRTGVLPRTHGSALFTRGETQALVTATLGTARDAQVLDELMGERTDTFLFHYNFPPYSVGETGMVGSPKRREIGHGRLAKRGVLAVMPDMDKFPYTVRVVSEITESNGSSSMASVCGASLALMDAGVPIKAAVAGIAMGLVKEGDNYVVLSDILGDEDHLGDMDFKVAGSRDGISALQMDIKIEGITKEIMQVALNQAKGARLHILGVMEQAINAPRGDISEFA

[5] = target: T3, PNPase (E. coli polynucleotide phosphorylase, full-length) (E. coli); test: co-purification; PNPase and RNase E 1000–1061 co-expressed in E. coli BL21(DE3), purified together by ammonium sulfate, Q, butyl-Sepharose HIC and Superdex 200

binding [1]: binds
Substance: P. aeruginosa MBP-tagged C-terminal end of RNase E (883 – 1057) (from UniProt Q9HZM8 883-1057) (domain or fragment)

binding [2]: no binding
Substance: RNase E 960–1039 (from UniProt P21513 960-1039) (domain or fragment)

binding [3]: binds
binding [4]: binds
Substance: RNase E 960–1061 (from UniProt P21513 960-1061) (domain or fragment)

binding [5]: binds
Substance: RNase E 1000–1061 (from UniProt P21513 1000-1061) (domain or fragment)
